Results as given in PubChem BioAssay AID651820 (National Center for Advancing Translational Sciences (NCATS), 2012).
About 12,000 (3.5%) of roughly 340,000 compounds were called active. This list was built around the results that the source calls inconclusive (neither active nor inactive); the mix of calls is not that of the screen. Calls come from the whole dose curve; as a rule, active = well fitted inhibition curve with a large enough effect; inconclusive = small, poorly fitted or top-dose-only effect, or another doubt; inactive = no such curve, though single readings can be large or run the other way. No potency is given beside an inconclusive call; the fits are too rough.

Test: qHTS Assay for Inhibitors of Hepatitis C Virus (HCV)
Conditions: Huh7.5.1 HCVcc-Cre (HCVcc is cell-culture hepatitis C virus) infection, luciferase reporter, 44 h; series mostly up to 41.8 µM
Method in brief: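 A cell-based infection assay in which seeded cells (1,000 per well) receive test compound after 4 h, are inoculated with HCVcc-Cre at approximately 0.5 moi, and are incubated 44 h before luminescence detection.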
Potency is the fitted concentration of half-maximal effect; tags give direction and shape of the fitted curve.

| SMILES | Potency |
| --- | --- |
| C1CCCN(c2nc3nonc3nc2N2CCCCCC2)CC1 | inactive |
| CC(=O)Nc1cccc(C(=O)NNC(=O)c2ccccc2-n2cccc2)c1 | inactive |
| Cn1cc(SCC(=O)N2CCN(c3ccccc3)CC2)c2ccccc21 | inconclusive [inhibitor, single point] |
| O=C(Cn1cnc2ccccc21)Nc1ccc2c(c1)OCCCO2 | active: 11.2 µM |
| O=C1CN(C(=O)COC(=O)c2cccnc2Cl)c2ccccc2N1 | inconclusive [inhibitor, single point] |
| CCCN(CCC)CCNC(=O)c1cn(C)c(=O)c2c1c1ccccc1n2C | inactive |
| CN1CCc2ccccc2C1C1CCNCC1 (stereo not given) | inconclusive [inhibitor, single point] |
| COc1ccc(Cn2c(-c3ccc(C)cc3)nc3c(c(=O)c4ccccc4n3C)c2=O)cc1 | inconclusive [inhibitor, partial curve, poor fit] |
| N#CCC(=O)N/N=C/c1c(-c2ccccc2)n(-c2ccccc2)c2ccccc12 | active: 14.1 µM |
| CCN(c1ccccc1)S(=O)(=O)c1ccc2c(c1)CC(C)N2C(=O)C1CC1 (stereo not given) | inconclusive [inhibitor, single point] |
| Cc1ccc(CC(=O)N2CCN(c3cccc(C(F)(F)F)c3)CC2)cc1 | inactive |
| S=c1[nH]nc(-c2ccncc2)n1/N=C/c1cccc2ccccc12 | inactive |
| COc1cc(SC)ccc1C(=O)Nc1ccc(C)cc1 | inconclusive [inhibitor, single point] |
| O=C(N/N=C/c1cccnc1)c1cc(-c2ccccc2OCc2ccccc2)n[nH]1 | inconclusive [inhibitor, partial curve, poor fit] |
| COc1ccc(CC(=O)NCCCSc2ccccc2)cc1OC | inconclusive [inhibitor, full curve, poor fit] |
| COc1ccc(OC)c(CCNC(=O)CC2(CC3=NS(=O)(=O)c4ccccc4N3)CCCC2)c1 | inconclusive [inhibitor, partial curve] |
| CCOc1cc(/C=N/NC(=O)C(O)(c2ccccc2)c2ccccc2)ccc1OC(=O)c1ccco1 | inactive |
| O=C(NNc1ccccc1)c1ccccc1 | inactive |
| CCn1c2ccccc2c2cc(/C=C(/C#N)C(N)=S)ccc21 | inconclusive [inhibitor, single point] |
| Cc1noc2ncnc(Oc3cc(Cl)ccc3Cl)c12 | active: 12.6 µM |
| CCC1=Nc2cc(C(=O)NCc3ccco3)ccc2Sc2ccccc21 | inconclusive [inhibitor, partial curve] |
| COc1ccc(/C=C2\SC(=S)N(CC(=O)NCCO)C2=O)cc1 | inactive |
| COc1ccc(C)cc1NC(=O)CCCNC(=O)Cn1cnc2sc(C)c(C)c2c1=O | inconclusive [inhibitor, single point] |
| Cc1c(NC(=O)c2nn3c(C(F)(F)F)cc(-c4ccccc4)nc3c2Cl)c(=O)n(-c2ccccc2)n1C | inconclusive [inhibitor, full curve] |
| Cc1cc(OCC(=O)OCC(=O)N2CC(C)CC(C)C2)ccc1Cl (stereo not given) | inactive |

| SMILES | Potency |
| --- | --- |
| O=C(COc1ccc(Cl)c2cccnc12)N1CCOCC1 | inactive |
| Cc1cc(Cn2nnc3ccccc32)c(O)c(C(C)(C)C)c1 | active: 10 µM |
| COc1ccc(CCN2CCCC(CN(C)Cc3cc(OC)c(OC)c(OC)c3)C2)cc1 (stereo not given) | inconclusive [inhibitor, full curve] |
| CC(C)OCC(O)CN1CCN(CCN2C(=O)c3cccc4cccc(c34)C2=O)CC1 (stereo not given) | inconclusive [inhibitor, single point] |
| Cc1nc(N2CCOCC2)[nH]c(=O)c1C | inactive |
| CCN(CC)CCNC(=O)c1c(O)c2cccc3c2n(c1=O)CCC3 | inconclusive [inhibitor, single point] |
| Cc1ccc2nc(SCC(=O)N3CCCc4ccccc43)nc(=O)n2c1 | inactive |
| O=C(Nc1cccc2ccccc12)c1cn(-c2ccccc2)nc1-c1cccs1 | inconclusive [inhibitor, single point] |
| Cc1ccc(S(=O)(=O)NCCC(=O)Nc2ccc(S(=O)(=O)NC(C)C)cc2)cc1 | inactive |
| COC(=O)c1ccccc1NC(=O)c1onc(C)c1Cl | inactive |
| COc1ccccc1N(CC(=O)Nc1ccc(Cc2ccncc2)cc1)S(=O)(=O)c1ccccc1 | inconclusive [inhibitor, single point] |
| Cc1ccc(-c2cn3cccnc3n2)cc1NC(=O)c1cccs1 | inactive |
| CCOc1ccc(Nc2nc(NCC3CCCO3)c3ccccc3n2)cc1 (stereo not given) | inconclusive [inhibitor, partial curve] |
| COc1cc2ncnc(NCc3ccc(C)cc3)c2cc1OC | inactive |
| O=C(CCc1nnc(-c2ccc3c(c2)OCO3)o1)NCCc1ccccc1F | inactive |
| COc1cccc(NC(=O)c2ccnc(N3CCC(C(=O)NCc4cc(OC)ccc4OC)CC3)c2)c1 | inconclusive [inhibitor, partial curve] |
| CCS(=O)(=O)N1CCN(c2nc(-c3ccccc3)cs2)CC1 | inconclusive [inhibitor, partial curve] |
| Cc1cc(NC(=O)CCOc2ccc(F)cc2)no1 | inconclusive [inhibitor, partial curve, poor fit] |
| CC=Cc1cc2c(c(=O)o1)C(=O)C(O)C(C)O2 (stereo not given) | inconclusive [inhibitor, single point] |
| Cc1cc(C)nc(SCC(=O)NC2CCCCC2C)n1 (stereo not given) | inactive |
| COc1ccc(S(=O)(=O)Nc2ccc3c(c2)OCO3)cc1OC | inactive |
| O=c1c(N2CCOCC2)c(N2CCOCC2)c1=O | inactive |
| Cc1cc(C)c2nc(Nc3nc(CSc4nc5ccccc5[nH]4)cc(=O)[nH]3)nc(C)c2c1 | inconclusive [inhibitor, partial curve] |
| Cc1ccc(-n2nc3c(=O)n(CCCC(=O)N4CCCCC4)nc(C)c3c2C)cc1 | inactive |
| CC1=C(C(=O)Nc2cccc(C(=O)NCc3ccccc3C)c2)SCCO1 | inconclusive [inhibitor, partial curve] |
